# ± gives the standard deviation of the averaged measurements. This is one part of the list.
# Tested on: PfAP2-LT AP2 domain (GST-tagged)
# Assay: gcPBM binding intensity (ln(normalized median fluorescence intensity)); higher = stronger DNA binding
# How it was run: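 Using an Agilent 4 × 180k array, primer-extended double-stranded 36-bp intergenic genomic probes and negative controls were exposed for 1 h to GST-fused P. falciparum DNA-binding domains expressed in E. coli. Binding was carried out in 1× PBS with 1% milk, 0.2 mg/ml BSA, 0.5% salmon testes DNA and 0.03% Triton X-100, and protein was detected with Alexa488 anti-GST antibody and a 488 nm scan. Binding intensity is the highest Masliner-normalised natural-log median intensity across replicate spots of either probe orientation.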
row,Sequence,gcPBM binding intensity (ln)
1,AAATTTTCATGTGTTGCATGCTGAACTATTTTATCA [TGCATGCA_site856],8.9 ± 0.37
2,AAGGAATATATATACATACACACATATATATATATA [CACACA_site1665],9.81 ± 0.3
3,AGTGGATGAGGACATACACACACACCGAAGTTGATA [CACACA_site9132],9.48 ± 0.47
4,AAAAAAAAAAAAAAAAAAAAAAATATATATATATAT [XGTACX_negctrl_site33],9.49 ± 0.2
5,ATATAATAAATATATTGTACATATGAATCTACTAAA [XGTACX_site7610],8.65 ± 0.46
6,TAAAAAATGATAGAAGTGCATAAAATAATATATATA [GTGCAC_site9904],8.77 ± 0.55
7,GACTTGAAGAAATAAGTGCAGAGTTTTATTTTAATT [GTGCAC_site9912],8.64 ± 0.57
8,TTTCTATTTCCTTCACATCTTTTCATCTTTTTTTTT [CACACA_negctrl_site1110],8.71 ± 0.43
9,AAAAAATTCCTATATACACACACGCACATATTTATA [CACACA_site6192],9.43 ± 0.28
10,AAATAAATAAAAAACACACACAAATAAATAAATATA [CACACA_site2249],9.46 ± 0.39
11,TATTTTTTCCTTTGTTTTTTAAACTATCTTAACTAA [XGTACX_negctrl_site519],8.52 ± 0.5
12,ATTTATTAAATAAAAAGTACAAAATAAGAAAGAAGA [XGTACX_site6935],8.79 ± 0.57
13,ATATATAATATAATATGTACATAAAATTTTAACATT [XGTACX_site5773],8.93 ± 0.49
14,TTATATATATCTAATTGTACAATATTATGTTCATTA [XGTACX_site7479],8.74 ± 0.44
15,TATATTCCCTTAATCACACATAAATAAAAAAAAATA [CACACA_site6094],8.47 ± 0.42
16,AAAAAAACAGTGAATGCACACATTTAAGATCCATAT [CACACA_site3148],9.13 ± 0.41
17,TACATACATACAGGAGTGCATATATCACAATTATTA,8.92 ± 0.37
18,AAAAAAAAAAAAACTACACACATACAAATATTTATA [CACACA_site5430],9.07 ± 0.52
19,TATTTCCTTTTTCTTGTTATTCATGAGAAAAAATGA [CACACA_negctrl_site482],8.19 ± 0.35
20,GAAATTTTTAATGTGGTGCACAGGAAATTTTTTCTT,8.69 ± 0.45
21,AAAATAATAATAGGCACACATATATATATATATATA [CACACA_site2058],9.99 ± 0.21
22,AAGAATCATATTTAAACACACATACAGATATATATA [CACACA_site5787],8.89 ± 0.42

row,Sequence,gcPBM binding intensity (ln)
1,ACGACTAAATATATGAGTACATATATATATAAATAT [XGTACX_site7522],8.88 ± 0.47
2,TGCAAAAAATTCCACACACACACACCCATATAAATA [CACACA_site1230],9.9 ± 0.028
3,TCTAAAATAAATAATGCATGTTAAAAAAAAATATAT [TGCATGCA_site562],8.59 ± 0.43
4,AATTTGGTGTGTGTAAAAGTATGTGTCTATATTTAT [GTGCAC_negctrl_site166],9.55 ± 0.19
5,AGTTATATGATTAATACACACAACAAATGTTTCTTC [CACACA_site1092],8.99 ± 0.4
6,ATGTATGTTTATTACTATTTTGAGAATAGACTATAA [CACACA_negctrl_site1366],8.46 ± 0.41
7,AAGAAAATAAAAAATAAGCATAATATGATATGATAT [TGCATGCA_negctrl_site196],8.94 ± 0.46
8,TTTCTTTATAAATTAATATTCACAACACAAAATATA [CACACA_negctrl_site450],8.24 ± 0.47
9,AAAAATTTGGCATACACACACACACCGACACAGACA [CACACA_site4489],10 ± 0.23
10,GTGCATATAAGGAAGTGTACGAAAAAAAATATTCCA [XGTACX_site8490],8.89 ± 0.42
11,CAAATATGTCTTATTCGTACACATATATATATATAT [XGTACX_site8817],9.45 ± 0.31
12,TCTTTTAGTTTTATCCACATAATAAAAAGCAAAAAA [GTGCAC_negctrl_site368],8.25 ± 0.55
13,AAAAAAAAAAAAATAGGTACGTAAATATTTCTTTAA [XGTACX_site6423],8.47 ± 0.66
14,TATTCTTCAATTTAAAGTACAAAAATTACTATACTT [XGTACX_site6599],8.31 ± 0.4
15,AAAAAAAAAAAAAAGAGTACTTTTTTCTCATTACTA [XGTACX_site8353],8.54 ± 0.32
16,ATTGTGGCAATATATTGTACATGTAATATAAATATA [XGTACX_site5415],8.88 ± 0.47
17,AATTAAAATATATATATACACACGTAATTATATATA [CACACA_site3819],8.74 ± 0.36
18,TATAATTATATTTGGAGTACAAATTTTTTTTTTTTT [XGTACX_site7494],8.29 ± 0.46
19,AAAAAAAAAGGTAACGCATGCTTTTAGATTATATTA [TGCATGCA_site398],8.55 ± 0.45
20,AAGTATGCTTGCTACTTATTAAGTGGCAATATAATT [XGTACX_negctrl_site74],8.58 ± 0.33
21,TTTGTATAGTTGTAGGTGCATATCATTTTTAAATGT [GTGCAC_site9708],8.78 ± 0.4
22,TGTTAATAAAGGTGTACACAAAATAAAAAAAATTAT [CACACA_site4288],8.97 ± 0.58

# From the supplement of paper PMC11417369
